Test results reported in PubChem BioAssay AID485294 (National Center for Advancing Translational Sciences (NCATS), 2010).
Hit rate of the full screen: of about 370,000 compounds, about 150 (0.041%) were called active. Inconclusive means that the source gave no clear call. Such entries were picked first, then a sample of the others. Calls follow the shape of the dose curve; as a rule, active = well fitted inhibition curve with a large enough effect; inconclusive = small, poorly fitted or top-dose-only effect; inactive = flat fitted curve, though single readings scatter. Potencies of inconclusive entries are left out as doubtful fits.

These compounds were tested against Beta-lactamase (Escherichia coli (strain K12)) (UniProt P00811) (assay: qHTS Inhibitors of AmpC Beta-Lactamase (assay with detergent)). Conditions: AmpC hydrolysis of nitrocefin, absorbance 480 nm, 0.01% Triton; activity change, negative = inhibition: at 114 µM (top of the series).
Sequence of UniProt P00811 (P00811 whole entry, looked up): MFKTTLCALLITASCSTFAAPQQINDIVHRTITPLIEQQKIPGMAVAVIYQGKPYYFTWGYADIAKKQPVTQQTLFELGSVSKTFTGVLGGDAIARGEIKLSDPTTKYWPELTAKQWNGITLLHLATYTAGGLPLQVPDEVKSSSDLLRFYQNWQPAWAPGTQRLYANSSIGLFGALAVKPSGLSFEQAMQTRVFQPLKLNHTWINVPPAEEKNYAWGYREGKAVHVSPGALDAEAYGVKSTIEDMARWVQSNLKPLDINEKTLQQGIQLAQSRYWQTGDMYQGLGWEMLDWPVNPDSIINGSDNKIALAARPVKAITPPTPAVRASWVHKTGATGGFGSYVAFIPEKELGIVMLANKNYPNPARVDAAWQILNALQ
In short: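 AmpC (5.3 nM in the dispensed reagent) in 20 mM phosphate pH 7.0 with 0.01% (detergent screen) or 0.0001% Triton X-100 was preincubated with compounds for 15 min at room temperature. Nitrocefin was then added from an 800 uM solution, and hydrolysis was followed at 480 nm.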
Also: nearly all actives have a fitted effect of over 25% in size.
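For activity change, negative = inhibition in this document: 0% = no-compound wells and -100% = no-enzyme wells.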
Potency is read from the fitted curve at half-maximal effect; tags tell the direction and shape of the fitted curve.

Compound	Potency	activity change, negative = inhibition
O=C(CN(Cc1ccccc1)S(=O)(=O)c1ccc2c(c1)OCCO2)N/N=C/c1cccc(Br)c1	inconclusive [inhibitor, full curve, poor fit]	
O=C(O)CN1C(=O)SC(Nc2ccc(Cl)cc2)C1=O (configuration not stated)	inconclusive [inhibitor, full curve, poor fit]	
CCN(C(=O)COC(=O)c1ccc(C)c(S(=O)(=O)N2CCOCC2)c1)C1CCS(=O)(=O)C1 (configuration not stated)	inconclusive [inhibitor, single point]	
CCN(CC)CCOC(=O)c1ccc(NC(=O)CCNC(=O)Cn2ccc3ccccc3c2=O)cc1		inactive: -7.72%
CCOC(=O)N1CCN(C(=S)NC(=O)c2cncc(Br)c2)CC1	inconclusive [inhibitor, full curve]	
CC1=NN(C(N)=S)C(=O)C1N=Nc1ccc([N+](=O)[O-])cc1 (configuration not stated)		inactive: -13.7%
CC1(C)CC(=O)c2cc(OCC(=O)N3CCCCCC3)ccc2O1	inconclusive [inhibitor, partial curve]	
O=C(COC(=O)CSc1ccc([N+](=O)[O-])cc1)NCCC1=CCCCC1	inconclusive [inhibitor, full curve, poor fit]	
COc1cccc(C2C(C(=O)c3sc(C)nc3C)=C(O)C(=O)N2CCN(C)C)c1OC (configuration not stated)	inconclusive [inhibitor, partial curve, poor fit]	
O=C(CC1SCCNC1=O)Nc1cccc(C(F)(F)F)c1 (configuration not stated)	inconclusive [inhibitor, full curve, poor fit]	
CCOC(=O)Cc1nn[nH]n1	inconclusive [inhibitor, single point]	
CNc1oc(Cc2ccccc2)nc1S(=O)(=O)c1ccccc1	inconclusive [inhibitor, full curve, poor fit]	
CC(C(=O)c1ccc(Br)cc1)[n+]1cccc(NC(=O)c2ccccc2)c1 (configuration not stated)	inconclusive [inhibitor, single point]	
COc1ccc(CNc2nc3nc4c(c(=O)n3[nH]2)CCC4)cc1	inconclusive [inhibitor, full curve, poor fit]	
COc1cccc(CN(C)C(=O)c2cccc(S(=O)(=O)N3CCN(Cc4ccccc4)CC3)c2)c1OC	inconclusive [inhibitor, single point]	
COc1cc(NC(=O)CS(=O)(=O)c2ccc(C)cc2)cc(OC)c1OC	inconclusive [inhibitor, single point]	
CC(=O)N(Cc1ccco1)c1nc(C(=O)Nc2ccc(Cl)cc2)c(C)s1		inactive: -10.9%
COc1ccc(-c2c(C)nc3c(-c4ccsc4)cnn3c2N)cc1		inactive: -0.651%
CCCn1c(C)cc(/C=C(\C#N)C(=O)O)c1C		inactive: -3.16%
COc1ccc(S(=O)(=O)c2c(N)n(Cc3ccco3)c3nc4ccccc4nc23)cc1		inactive: -0.637%
COCCN(CC(=O)NC1CCCCC1)C(=O)/C=C/C(=O)c1ccc(OC)cc1O		inactive: -3.38%

Compound	Potency	activity change, negative = inhibition
CCCc1cc(=O)oc2c3c(c4c(c12)OC(C)(C)C=C4)OC(C)C(C)C3O (configuration not stated)	inconclusive [inhibitor, partial curve, poor fit]	
CCOc1ccc(-n2c(=O)c3sccc3n(CC(=O)NCCc3ccc(OC)c(OC)c3)c2=O)cc1	inconclusive [inhibitor, single point]	
COc1ccc(CCNC(=O)C(CC(C)C)NC(N)=O)cc1 (configuration not stated)	inconclusive [inhibitor, full curve, poor fit]	
COC(=O)Cc1ccc(NC(=O)c2ccc3c(c2)C(=O)N(Cc2cccnc2)C3=O)cc1		inactive: 2.29%
COc1ccc(-c2ccc(SCC(=O)NCc3ccco3)nn2)cc1		inactive: -7.68%
Fc1cccc(Cl)c1CSc1nnc(CNc2ccccc2)o1		inactive: 6.26%
CCOc1ccc(NC(=O)C2CC(=O)N(CC)C(=Nc3ccc4c(c3)OCO4)S2)cc1 (configuration not stated)	inconclusive [inhibitor, partial curve]	
CC(C)CC(=O)N1CCN(Cc2ccc3ccccc3c2)CC1	inconclusive [inhibitor, full curve, poor fit]	
COc1cccc(CNC(=O)C2(C)Oc3ccccc3NC2=O)c1 (configuration not stated)	inconclusive [inhibitor, single point]	
COC(=O)c1cccc([N+](=O)[O-])c1CN1CCCC(C(N)=O)C1 (configuration not stated)	inconclusive [inhibitor, partial curve, poor fit]	
Cc1ccc(-c2csc3ncnc(Oc4cccc5ccc(C)nc45)c23)cc1	inconclusive [inhibitor, full curve, poor fit]	
Cn1cc(C(=O)c2ccc(Cl)cc2)cc1-c1nc2ccccc2n1C	inconclusive [inhibitor, full curve, poor fit]	
COc1ccccc1OCc1ccc(C(=O)N2CCN(C)CC2)o1	inconclusive [inhibitor, partial curve, poor fit]	
COc1cccc(NC(=O)CNC(=O)Cn2cnc3sc4c(c3c2=O)CCCC4)c1		inactive: -9.86%
O=C(NN1CCOCC1)c1ccccc1F	inconclusive [inhibitor, full curve, poor fit]	
COc1ccc(NS(=O)(=O)c2ccc(Cl)s2)cn1	inconclusive [inhibitor, full curve, poor fit]	
Cn1ncc(Br)c1C(=O)N1CCc2ccccc21	inconclusive [inhibitor, partial curve, poor fit]	
Nc1cc(=O)[nH]c(=O)n1Cc1ccccc1	inconclusive [inhibitor, partial curve, poor fit]	
COC(=O)c1cc(C(=O)OC)cc(S(=O)(=O)Nc2ccc(Cl)c(N)c2)c1	inconclusive [inhibitor, partial curve, poor fit]	
CCOC(=O)c1c(-c2ccccc2)c2cc(OC)ccc2n1CCCN(C)C	inconclusive [inhibitor, full curve]	
CCOC(=O)N1CCC(NC(=O)Cn2cc3c(n2)CCCC3)CC1	inconclusive [inhibitor, full curve, poor fit]	
